# Results taken from the supplement of paper PMC9135407.
# Several values for one entry are separate records, joined by “and”; a condition that tells them apart may be missing. Identical values can stand only once. Counter-ions that a name gives are not always drawn. The campaign covered roughly 5,800 compounds. About 620 (11%) showed activity.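 How the source made its calls: active = score above a cut-off or among the top three wells of a plate; in these data no inactive exceeds 0.85.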 The list shows a part of the results, in another mix than the full data.
# Tested on: primary human hepatic stellate cells (donor 1)
# Assay: scaled lipid accumulation score (0 = DMSO-like, 1 = nortriptyline-like); higher = stronger HSC inactivation (lipid re-accumulation), active = hit call of the paper
# Details: 48 h
# Experimental: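 Primary lipid accumulation screen in primary human hepatic stellate cell myofibroblasts (donor 1, passage 8) in 384-well plates. 100 nL of library compound was pin-transferred into 30 µL medium in duplicate, and cells were treated for 48 h. The 'Scaled' score combines distance from plate baseline, toxicity and reproducibility penalties, and is normalised to nortriptyline (positive) and DMSO (negative) controls on each plate. A hit is defined as scaled >0.85 or among the top 3 wells per plate.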
# [1] = library stock concentration: 80 uM
# [2] = library stock concentration: 400 uM
# [3] = library stock concentration: 10 mM
# [4] = library stock concentration: 1 mM
# [5] = library stock concentration: 3.33 mM
# [6] = library stock concentration: 5.3 mM
compound,measurement,setting,value
O=C1NCCCc2c1oc1ccc(O)cc21,scaled lipid accumulation score,[1],inactive: ≤ -0.001
same,scaled lipid accumulation score,[2],inactive: ≤ -0.001
same,scaled lipid accumulation score,library stock concentration: 2 mM,inactive: ≤ -0.001
same,scaled lipid accumulation score,[3],inactive: ≤ -0.001
CCCCCCCCCCCCC/C=C/[C@@H](O)[C@@H](N)CO [Sphingosine],scaled lipid accumulation score,[4],inactive: ≤ -0.021
COc1ccccc1OCC(O)COC(N)=O (stereo not drawn) [Methocarbamol],scaled lipid accumulation score,,inactive: ≤ 0
same,scaled lipid accumulation score,[5],inactive: ≤ 0
same,scaled lipid accumulation score,library stock concentration: 8.3 mM,inactive: ≤ -0.001
same,scaled lipid accumulation score,[3],inactive: ≤ 0
Cc1cc(N)c2ccccc2[n+]1CCCCCCCCCC[n+]1c(C)cc(N)c2ccccc21 [Dequalinium chloride],scaled lipid accumulation score,[3],inactive: 0.037
Cc1cc(N)c2ccccc2[n+]1CCCCCCCCCC[n+]1c(C)cc(N)c2ccccc21 [Dequalinium chloride hydrate],scaled lipid accumulation score,[3],inactive: ≤ -0.07
Cc1cc(N)c2ccccc2[n+]1CCCCCCCCCC[n+]1c(C)cc(N)c2ccccc21 [Dequalinium dichloride],scaled lipid accumulation score,,inactive: 0.249
CCc1c(Cl)c(O)c(Cl)c(O)c1C(=O)O[C@H]1[C@H](O)[C@H](OC)[C@H](OC/C2=C\C=C\C[C@H](O)/C(C)=C/[C@H](CC)[C@@H](O[C@@H]3OC(C)(C)[C@@H](OC(=O)C(C)C)[C@H](O)[C@@H]3O)/C(C)=C/C(C)=C/C[C@@H]([C@@H](C)O)OC2=O)O[C@@H]1C [Fidaxomicin],scaled lipid accumulation score,[5],inactive: ≤ 0
same,scaled lipid accumulation score,[3],inactive: 0.125
Nc1ccn([C@@H]2CS[C@H](CO)O2)c(=O)n1,scaled lipid accumulation score,library stock concentration: 9.9 mM,inactive: ≤ 0
same,scaled lipid accumulation score,[3],inactive: ≤ 0
Nc1ccn([C@@H]2CS[C@H](CO)O2)c(=O)n1 [Lamivudine],scaled lipid accumulation score,[5],inactive: 0.011
same,scaled lipid accumulation score,[3],inactive: ≤ 0
CN1Cc2c(N)cccc2C(c2ccccc2)C1 (stereo not drawn) [Nomifensine maleate],scaled lipid accumulation score,,inactive: 0.598
same,scaled lipid accumulation score,[3],inactive: 0.285 and inactive: ≤ -0.027
CN(C)C/C=C/C(=O)Nc1cc2c(Nc3ccc(F)c(Cl)c3)ncnc2cc1O[C@H]1CCOC1,scaled lipid accumulation score,[1],inactive: 0.425
same,scaled lipid accumulation score,[2],inactive: 0.614
same,scaled lipid accumulation score,[3],inactive: 0.544
CN(C)C/C=C/C(=O)Nc1cc2c(Nc3ccc(F)c(Cl)c3)ncnc2cc1O[C@H]1CCOC1 [Afatinib (BIBW2992)],scaled lipid accumulation score,[3],inactive: 0.323
"CN(C)C/C=C/C(=O)Nc1cc2c(Nc3ccc(F)c(Cl)c3)ncnc2cc1O[C@H]1CCOC1 [Afatinib  (TOVOK,  BIBW-2992) (0.4 mM)]",scaled lipid accumulation score,[2],inactive: 0.318
"CN(C)C/C=C/C(=O)Nc1cc2c(Nc3ccc(F)c(Cl)c3)ncnc2cc1O[C@H]1CCOC1 [Afatinib  (TOVOK,  BIBW-2992) (10 mM)]",scaled lipid accumulation score,[3],inactive: 0.256
OC[C@@H](O)[C@@H](O)[C@@H](O)CO [Ribitol],scaled lipid accumulation score,[5],inactive: 0.07
same,scaled lipid accumulation score,[3],inactive: 0.013
O=C(Nc1ccccc1)Nc1ccc(-c2ccc(C(=O)[C@@H]3CCC[C@H]3C(=O)O)cc2)cc1,scaled lipid accumulation score,[5],inactive: ≤ 0
same,scaled lipid accumulation score,[3],inactive: ≤ 0
O=C1C(c2ccccc2)N(c2ccc(Br)cc2)C(=O)N1c1ccc(Br)cc1 (stereo not drawn),scaled lipid accumulation score,[4],inactive: ≤ 0
FC(F)(F)COCC(F)(F)F [Flurothyl],scaled lipid accumulation score,library stock concentration: 11 mM,inactive: ≤ -0.001
CCN[C@@H]1C[C@H](N)[C@@H](O[C@H]2OC(CN)=CC[C@H]2N)[C@H](O)[C@H]1O[C@H]1OC[C@](C)(O)[C@H](NC)[C@H]1O [Netilmicin sulfate],scaled lipid accumulation score,library stock concentration: 3 mM,inactive: ≤ 0
O=C1NC(=O)C(c2ccccc2)(c2ccccc2)N1 [Dilantin],scaled lipid accumulation score,[3],inactive: ≤ 0
"O=C1NC(=O)C(c2ccccc2)(c2ccccc2)N1 [5,5-Diphenylhydantoin]",scaled lipid accumulation score,[3],inactive: ≤ -0.07
O=C1NC(=O)C(c2ccccc2)(c2ccccc2)N1 [Phenytoin],scaled lipid accumulation score,[5],inactive: ≤ 0
same,scaled lipid accumulation score,library stock concentration: 7.9 mM,inactive: ≤ -0.006
same,scaled lipid accumulation score,[3],inactive: ≤ 0
CC(C)(O)c1ccccc1CC[C@@H](SCC1(CC(=O)O)CC1)c1cccc(/C=C/c2ccc3ccc(Cl)cc3n2)c1 [Montelukast Sodium],scaled lipid accumulation score,[5],inactive: ≤ 0
same,scaled lipid accumulation score,[3],inactive: ≤ -0.001
CC(C)(O)c1ccccc1CC[C@@H](SCC1(CC(=O)O)CC1)c1cccc(/C=C/c2ccc3ccc(Cl)cc3n2)c1 [Montelukast (sodium salt)],scaled lipid accumulation score,[4],inactive: ≤ 0
CC(C)(O)c1ccccc1CC[C@@H](SCC1(CC(=O)O)CC1)c1cccc(/C=C/c2ccc3ccc(Cl)cc3n2)c1,scaled lipid accumulation score,library stock concentration: 9.6 mM,inactive: ≤ 0
same,scaled lipid accumulation score,[3],inactive: 0.182
O=C1NC(=O)C(=Cc2ccc(-c3ccc(F)cc3)o2)S1 (stereo in doubt),scaled lipid accumulation score,[5],inactive: 0.028
same,scaled lipid accumulation score,[3],inactive: ≤ 0
NS(=O)(=O)c1ccc(-n2nc(C(F)(F)F)cc2-c2ccc(Cl)cc2)cc1,scaled lipid accumulation score,[3],inactive: ≤ -0.055
COc1cccc(C(=O)NCCN2CCN(c3ccc(Cl)cc3)CC2)c1,scaled lipid accumulation score,[3],inactive: 0.314
CC(C)Oc1ccc(C(=O)N[C@H](CNC(=O)CN(C)C)Cc2ccc(-c3cn4cccc([C@H](C)O)c4n3)cc2)cc1Cl,scaled lipid accumulation score,[3],active: 0.882
"c1ccc(CNc2ncnc3nc[nH]c23)cc1 [Aminopurine, 6-benzyl]",scaled lipid accumulation score,,inactive: ≤ 0
CCCCC[C@@H](O)/C=C/[C@H]1[C@H](O)CC(=O)[C@@H]1C/C=C\CCCC(=O)O [15(R)-Prostaglandin E2],scaled lipid accumulation score,[4],inactive: ≤ 0
COc1ccc2c(c1)c(CC(=O)Nc1cccnc1)c(C)n2C(=O)c1ccc(Cl)cc1 [N-(3-pyridyl)-Indomethacin amide],scaled lipid accumulation score,[4],inactive: 0.198
CC(=O)Oc1cccc(C)c1 [meta-CRESYL ACETATE],scaled lipid accumulation score,[3],inactive: ≤ 0
CCCCCCCCCCCCCCCC(=O)NC[C@@H](C)O [R-Palmitoyl-(2-methyl) Ethanolamide],scaled lipid accumulation score,[4],inactive: ≤ 0
COc1ccc(S(=O)(=O)N(CCO)c2ccccc2CN(C)C/C=C/c2ccc(Cl)cc2)cc1 [KN-93 Phosphate],scaled lipid accumulation score,[5],inactive: 0.441
"N#CCCc1ccc2c(c1)-c1[nH]c3ccc([N+](=O)[O-])cc3c1CC(=O)N2 [Alsterpaullone, 2-Cyanoethyl]",scaled lipid accumulation score,[5],inactive: 0.08
O=C(Nc1ccccc1Br)N[C@@H]1CCN(c2ccc(C(F)(F)F)cn2)C1,scaled lipid accumulation score,[5],inactive: ≤ 0
same,scaled lipid accumulation score,[3],inactive: ≤ 0
"O=C(O)c1ccc2c(c1)CCCC2 [5,6,7,8-tetrahydro-2-Naphthoic Acid]",scaled lipid accumulation score,[4],inactive: ≤ 0
NC(=O)[C@@H]1CCCN1C(=O)[C@H](Cc1c[nH]cn1)NC(=O)[C@@H]1CCC(=O)N1,scaled lipid accumulation score,[3],inactive: ≤ 0
O=C(NOCC(O)CO)c1cc(Br)c(F)c(F)c1Nc1ccc(I)cc1F (stereo not drawn),scaled lipid accumulation score,[5],inactive: 0.02
same,scaled lipid accumulation score,[3],inactive: ≤ 0
CN(C)CC(c1ccc(O)cc1)C1(O)CCCCC1 (stereo not drawn) [Desvenlafaxine],scaled lipid accumulation score,[5],inactive: ≤ 0
same,scaled lipid accumulation score,[3],inactive: ≤ -0.001
CN(C)CC(c1ccc(O)cc1)C1(O)CCCCC1 (stereo not drawn) [Desvenlafaxine Succinate],scaled lipid accumulation score,[5],inactive: ≤ 0
same,scaled lipid accumulation score,[3],inactive: ≤ -0.001
CN(C)CC(c1ccc(O)cc1)C1(O)CCCCC1 (stereo not drawn),scaled lipid accumulation score,[3],inactive: ≤ 0
Fc1ccc([C@@H]2CCNC[C@H]2COc2ccc3c(c2)OCO3)cc1 [Paroxetine HCl],scaled lipid accumulation score,library stock concentration: 6.1 mM,active: 1.01
O=[N+]([O-])c1cccc2c[nH]nc12,scaled lipid accumulation score,[3],inactive: ≤ 0
Cl.Fc1ccc([C@@H]2CCNC[C@H]2COc2ccc3c(c2)OCO3)cc1 [Paroxetine Hydrochloride],scaled lipid accumulation score,,active: 1.22
CC(C)(C)NCC(O)COc1cccc2[nH]c(=O)[nH]c12 (stereo not drawn),scaled lipid accumulation score,[3],inactive: ≤ -0.047
C#CCC(Cc1cnc2nc(N)nc(N)c2n1)c1ccc(C(=O)N[C@@H](CCC(=O)O)C(=O)O)cc1 (stereo partly drawn) [Pralatrexate],scaled lipid accumulation score,[5],inactive: ≤ 0
same,scaled lipid accumulation score,[3],inactive: ≤ 0
O=C(c1ccccc1)c1ccc2n1CCC2C(=O)O (stereo not drawn) [Ketorolac tris salt],scaled lipid accumulation score,[3],inactive: ≤ -0.055
O=C(c1ccccc1)c1ccc2n1CCC2C(=O)O (stereo not drawn) [Ketorolac],scaled lipid accumulation score,[5],inactive: ≤ 0
same,scaled lipid accumulation score,[3],inactive: ≤ 0
O=C(c1ccccc1)c1ccc2n1CCC2C(=O)O (stereo not drawn) [Ketorolac (tromethamine salt)],scaled lipid accumulation score,[4],inactive: ≤ 0
O=C(c1ccccc1)c1ccc2n1CCC2C(=O)O (stereo not drawn) [Ketorolac tromethamine],scaled lipid accumulation score,,inactive: ≤ 0
same,scaled lipid accumulation score,[6],inactive: ≤ 0
same,scaled lipid accumulation score,[3],inactive: 0.024
O=C(c1ccccc1)c1ccc2n1CCC2C(=O)O (stereo not drawn),scaled lipid accumulation score,[3],inactive: ≤ 0
CCOC(=O)[C@@](C)(N)Cc1ccc(O)c(O)c1 [Methyldopate hydrochloride],scaled lipid accumulation score,,inactive: ≤ 0
same,scaled lipid accumulation score,library stock concentration: 7.3 mM,inactive: ≤ 0
COc1c(N2CCNC(C)C2)c(F)cc2c(=O)c(C(=O)O)cn(C3CC3)c12 (stereo not drawn) [Gatifloxacin],scaled lipid accumulation score,[6],inactive: ≤ 0
same,scaled lipid accumulation score,[3],inactive: ≤ -0.027 and inactive: ≤ 0
CCN(CC)CCCC(C)Nc1nc(C)cc(Nc2ccc3nc(C)cc(N)c3c2)n1 (stereo not drawn),scaled lipid accumulation score,[5],inactive: ≤ -0.009
same,scaled lipid accumulation score,[3],inactive: 0.217 and inactive: 0.086
OCc1ccccc1O [Salicyl alcohol],scaled lipid accumulation score,[3],inactive: ≤ 0
same,scaled lipid accumulation score,library stock concentration: 16.1 mM,inactive: ≤ 0
O=c1[nH]cnc2c1ncn2[C@@H]1O[C@H](CO)[C@@H](O)[C@H]1O [Inosine],scaled lipid accumulation score,[5],inactive: ≤ 0
same,scaled lipid accumulation score,[3],inactive: 0.002
O=c1[nH]cnc2c1ncn2[C@@H]1O[C@H](CO)[C@@H](O)[C@H]1O,scaled lipid accumulation score,[3],inactive: ≤ 0
CCOc1ccccc1OC(c1ccccc1)C1CNCCO1 (stereo not drawn) [Reboxetine mesylate],scaled lipid accumulation score,[5],inactive: 0.21
same,scaled lipid accumulation score,[3],inactive: 0.519 and inactive: ≤ -0.006
CC(C)Cn1c(=O)n(C)c(=O)c2[nH]cnc21 [3-Isobutyl-1-methylxanthine],scaled lipid accumulation score,[3],inactive: ≤ -0.055
"Cc1n[nH]c(=O)[nH]c1=O [Azathymine, 6]",scaled lipid accumulation score,,inactive: ≤ 0
O=C1NC(=O)/C(=C/c2ccc3c(c2)OC(F)(F)O3)S1,scaled lipid accumulation score,[4],inactive: 0.008
same,scaled lipid accumulation score,[5],inactive: ≤ 0
same,scaled lipid accumulation score,[3],inactive: ≤ 0 and inactive: 0.01
